Measurements: PubChem BioAssay AID588591 (National Center for Advancing Translational Sciences (NCATS), 2011)
Several values for one entry are separate records, joined by “and”; a condition that tells them apart may be missing. Equal entries are not always repeated. Hit rate of the full screen: of about 390,000 compounds, about 4,700 (1.2%) were called active. Not shown: some 4% with an inconclusive outcome. Calls follow the shape of the dose curve; as a rule, active = well fitted inhibition curve with a large enough effect; inconclusive = small, poorly fitted or top-dose-only effect, or another doubt; inactive = no such curve, though single readings can be large or run the other way. This is a selection; strong and weak results do not stand in their true shares. Some structures have more than one record in an assay (separate samples or runs), and their calls can disagree.

Target: DNA polymerase eta (Homo sapiens) (UniProt Q9Y253)
Sequence of UniProt Q9Y253 (Q9Y253 whole entry, looked up): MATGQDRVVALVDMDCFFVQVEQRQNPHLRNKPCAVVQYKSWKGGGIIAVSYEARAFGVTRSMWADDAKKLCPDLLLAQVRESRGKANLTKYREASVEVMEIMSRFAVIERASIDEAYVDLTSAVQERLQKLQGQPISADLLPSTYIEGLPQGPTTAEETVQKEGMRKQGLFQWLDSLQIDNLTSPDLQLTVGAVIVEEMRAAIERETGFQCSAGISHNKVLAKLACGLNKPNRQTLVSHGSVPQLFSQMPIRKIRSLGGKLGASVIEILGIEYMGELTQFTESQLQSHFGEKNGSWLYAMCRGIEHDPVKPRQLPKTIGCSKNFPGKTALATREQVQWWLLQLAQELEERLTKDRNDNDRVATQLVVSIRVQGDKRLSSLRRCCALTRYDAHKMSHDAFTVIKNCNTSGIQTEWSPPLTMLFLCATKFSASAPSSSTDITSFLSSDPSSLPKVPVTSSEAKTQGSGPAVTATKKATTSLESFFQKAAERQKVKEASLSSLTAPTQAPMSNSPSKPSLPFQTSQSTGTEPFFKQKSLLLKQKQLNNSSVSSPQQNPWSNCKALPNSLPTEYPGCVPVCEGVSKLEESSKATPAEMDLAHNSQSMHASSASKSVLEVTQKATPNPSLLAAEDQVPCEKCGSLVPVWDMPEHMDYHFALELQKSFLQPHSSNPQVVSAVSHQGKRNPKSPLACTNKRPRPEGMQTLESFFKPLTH
Assay: qHTS for Inhibitors of Polymerase Eta
Conditions: recombinant Pol eta, fluorescent DNA replication assay; series mostly up to 114 µM; activity change, negative = inhibition: at the top concentration
Excerpt: The Y-family of DNA polymerases, such as Pol eta, are specifically involved in DNA repair. Pol eta copies undamaged DNA with a lower fidelity than other DNA-directed polymerases. However, it accurately replicates UV-damaged DNA; when thymine dimers are present, this polymerase inserts the complementary nucleotides in the newly synthesized DNA, thereby bypassing the lesion and suppressing the mutagenic effect of UV-induced DNA damage. […] Thus, while pol eta's (and most likely iota's) normal function is to protect humans against the deleterious consequences of DNA damage, under certain conditions they can have deleterious effects on human health. As a consequence, we propose to utilize a high throughput replication assay to identify small molecule inhibitors of pol eta. In a collaboration between the National Institute of Child Health & Human Development (NICHD) and NIH Chemical Genomics Center, a high-throughput, fluorescent screen was developed to screen the NIH Molecular Libraries Small Molecule Repository (MLSMR). This screen is used to identify inhibitors of pol eta. NIH Chemical Genomics Center [NCGC] NIH Molecular Libraries Probe Centers Network [MLPCN] MLPCN Grant: MH090825 Assay Submitter (PI): Roger Woodgate, NICHD)
Three microliters of reagents (buffer in column 3 and 4 as negative control and 10 nM Pol eta in columns 1, 2, and 5-48) were dispensed into a 1,536-well black solid-bottomed plate. Compounds (23 nL) were transferred via Kalypsys pin tool equipped with 1536-pin array. The plates were then incubated for 15 min at room temperature, and 1 µL substrate (50 nM final concentration) was added to start the reaction and kinetically read twice at 0 min and 10 min on the Viewlux reader
% is scaled to controls: 0 for no effect and ±100 for the full control effect; potency is read from the fitted curve at half-maximal effect.

SMILES | activity change, negative = inhibition | Potency
C[Se]C[C@H](N)C(=O)O | inactive: -0.968% [at 57.1 µM] | 
CC(=O)[C@H]1CCC2C3CC[C@H]4C[C@@H](O)CC[C@]4(C)C3CC[C@@]21C (some centres not stated) | inactive: -9.89% | 
N#CC(C#N)=NNc1ccc(S(N)(=O)=O)cc1 |  | active: 12.6 µM
N#CC(C#N)=Cc1ccc(O)c(O)c1 | inactive: -5.86% | 
COc1cccc(N2CCN(C(=O)C3CCN(S(=O)(=O)c4ccc5c(c4)oc(=O)n5C)CC3)CC2)c1 | inactive: -3.83% | 
CC(=O)C1CCC2C3CCC4CC(O)CCC4(C)C3CCC12C (configuration not stated) | inactive: -22% | 
CCOC(=O)c1ccc(Nc2nc(C)cc(C)n2)cc1 | inactive: -8.63% | 
CCC(=NCc1cccnc1)c1c(O)n(-c2ccc(Cl)cc2)c(=O)[nH]c1=O | inactive: 74.8% | 
CC[C@@H](CO)NC(=O)[C@@H]1C=C2c3cccc4c3c(cn4C)C[C@H]2N(C)C1 |  | inactive
Cc1ccc(C(=O)N2CCc3cc(CNC(=O)c4ccnn4C)ccc32)cc1 | inactive: 14.3% | 
O=C1NC2NC(=O)N([N+](=O)[O-])C2N1 (configuration not stated) | inactive: 43.2% | 
CC(=O)c1ccc2c(c1)C1C(Cl)C(Sc3ccccc3[N+](=O)[O-])CC1C(C(=O)O)N2 (configuration not stated) |  | active: 3.55 µM
Cc1csc(NC(=O)C(Cl)c2ccccc2)n1 (configuration not stated) (tested in a mixture with another compound) | inactive: 29.3% | 
Nc1nonc1C(=O)N/N=C/c1ccc([N+](=O)[O-])o1 |  | active: 20 µM
CCCCCCC(C)(C)c1ccc([C@@H]2C[C@H](O)CC[C@H]2CCCO)c(O)c1 | inactive: -5.74% | 
CC[C@@H](CO)NC(=O)[C@@H]1C=C2c3cccc4[nH]cc(c34)C[C@H]2N(C)C1 | inactive: -6.6% | 
COc1cc2c(cc1O)C[C@H]1c3c(cc(O)c(OC)c3-2)CCN1C | inactive: -6.36% | 
CCC1(O)C(=O)OCc2c1cc1n(c2=O)Cc2cc3cc(O)ccc3nc2-1 (configuration not stated) |  | active: 17.8 µM
COc1cc2c(cc1OC)-c1c(OC)c(OC)cc3c1C(C2)N(C)CC3 (configuration not stated) | inactive: -24.1% | 
CC(Cc1ccc(O)cc1)NCC(O)c1ccc(O)c(O)c1 (configuration not stated) |  | active: 3.98 µM
Cn1c(O)c(C=NC2CC3CCC2(C)C3(C)C)c(=O)[nH]c1=O (configuration not stated) | inactive: -8.59% | 
Cc1cc(/C=C2\C(=O)NC(=O)N(c3ccc(Cl)cc3)C2=O)c(C)n1-c1sc2c(c1C#N)CCCC2 |  | active: 20 µM
O=C1C=CC(=O)C=C1 | inactive: -16.2% | 
Clc1ccc(C(c2ccc(Cl)cc2)n2cc[n+](CC(OCc3ccc(Cl)cc3Cl)c3ccc(Cl)cc3Cl)c2)cc1 (configuration not stated) | inactive: -22.9% | 

SMILES | activity change, negative = inhibition | Potency
Cc1ccc(/C=C2\C(=O)NC(=O)N(CCc3ccc(F)cc3)C2=O)o1 | inactive: -13.9% | 
Cc1ccc(CN2CCCC(C(=O)c3ccc4c(c3)OCO4)C2)cc1C (configuration not stated) | inactive: 31.1% | 
CCC(CO)NC(=O)C1C=C2c3cccc4[nH]cc(c34)CC2N(C)C1 (configuration not stated) | inactive: 1.97% | 
O=c1c(O)c(-c2ccc(O)c(O)c2)oc2cc(O)cc(O)c12 |  | active: 794 nM and active: 708 nM
C[C@]12CC[C@@H](O)C[C@@H]1CC[C@@H]1[C@@H]2CC[C@]2(C)C(=O)[C@H](O)C[C@@H]12 | inactive: -17.2% | 
O=C1NC(=O)N(Cc2ccc(F)cc2)C(=O)/C1=C\C=C\c1ccco1 |  | active: 20 µM
C/C(=C/CCC(C)[C@H]1CC[C@@]2(C)C3=C(CC[C@]12C)[C@@]1(C)CCC(=O)C(C)(C)[C@@H]1CC3)C(=O)O (some centres not stated) |  | active: 79.4 µM
O=c1[nH]c(=S)n(-c2ccc(Br)cc2)c(O)c1C=Nc1ccc(N2CCOCC2)cc1 | inactive: 24.3% | 
CCN1CCc2ccccc2C1 | inactive: 37.2% | 
NC1C=CC=C(C(=O)O)C1 (configuration not stated) | inactive: -4.43% | 
O=c1oc2ccccc2c(O)c1C(c1ccc([N+](=O)[O-])cc1)c1c(O)c2ccccc2oc1=O |  | active: 20 µM
CN1C(=O)C(=Cc2c(OCc3cnc(Cl)s3)ccc3ccccc23)C(=O)N(C)C1=O | inactive: 25.9% | 
COc1ccc2c(c1O)C13CCN(C)C(C2)C1CCC(=O)C3 (configuration not stated) | inactive: -8.63% | 
CCOC(=O)c1ccc(NC(=O)N2C[C@@H]3C[C@@H](C2)c2cccc(=O)n2C3)cc1 | inactive: -13.4% | 
COc1ccc(CNS(=O)(=O)c2cc3c(cc2C)N(C)CCO3)cc1 | inactive: -18.9% | 
C=C(C)[C@@H]1CC[C@]2(C(=O)O)CC[C@]3(C)[C@H](CC[C@@H]4[C@@]5(C)CC[C@H](O)C(C)(C)[C@@H]5CC[C@]43C)[C@@H]12 | inactive: -8.71% | 
CN(C)C1C(=O)C(C(N)=O)=C(O)C2(O)C(=O)C3=C(O)c4c(O)cccc4C(C)(O)C3C(O)C12 (configuration not stated) | inactive: -9% | 
NCc1cc(=O)[nH]o1 | inactive: -0.877% [at 57.1 µM] | 
CC(=O)OC12COC1CC(O)C1(C)C(=O)C(O)C3=C(C)C(O)CC(O)(C(OC(=O)c4ccccc4)C21)C3(C)C (configuration not stated) | inactive: -16.4% | 
C[C@]12C=CC(=O)C=C1CC[C@@H]1C2=CC[C@]2(C)[C@@H](C(=O)CN3CCN(c4cc(N5CCCC5)nc(N5CCCC5)n4)CC3)CC[C@@H]12 | inactive: -23.9% | 
NC(Cc1cc(O)c(O)cc1O)C(=O)O (configuration not stated) |  | active: 0.282 µM
CCC1(O)C(=O)OCc2c1cc1n(c2=O)Cc2cc3c(N)cccc3nc2-1 (configuration not stated) | inactive: -6.32% | 
Oc1ccccc1O | inactive: 2.02% | 
CCn1c(O)c(C=Nc2ccc(N3CCOCC3)cc2)c(=O)n(CC)c1=S | inactive: 71.3% | 

SMILES | activity change, negative = inhibition | Potency
O=C1NC(=O)N(Cc2ccc(F)cc2)C(=O)/C1=C\c1ccc([N+](=O)[O-])s1 |  | active: 28.2 µM
CCOc1ccc(NS(=O)(=O)c2ccc(Cl)c(N=Nc3c(O)[nH]c(=S)[nH]c3=O)c2)cc1Br |  | active: 20 µM
N#CC1=C(N)Oc2c(c(=O)oc3ccccc23)C1c1ccc([N+](=O)[O-])o1 (configuration not stated) |  | active: 20 µM
COc1ccc(Cc2nccc3cc(OC)c(OC)cc23)cc1OC | inactive: -7.07% | 
NNC(N)=O | inactive: 4.52% [at 57.1 µM] | 
C[C@@H]1CC2C3CC=C4C[C@@H](O)CC[C@]4(C)C3CC[C@]2(C)[C@H]1O (some centres not stated) | inactive: -8.77% | 
CCN1/C(=C/C=C/C2=[N+](CC)c3ccccc3C2(C)C)C(C)(C)c2ccccc21 |  | active: 31.6 µM
COc1cccc(C2C([N+](=O)[O-])=C(N)Oc3c2c(=O)oc2ccccc32)c1 (configuration not stated) | inactive: 3.22% | 
O=c1[nH]c(=O)n(Cc2ccccc2)c(O)c1/C=N/Nc1c(F)c(F)c(F)c(F)c1F | inactive: 14% | 
Cc1c(Cc2ccccc2)c(=O)oc2cc(OCc3ccc(C(=O)O)cc3)ccc12 | inactive: 33.3% | 
CCN(CC)c1ccc(/C=C2\C(=O)NC(=O)N(Cc3ccco3)C2=O)cc1 |  | active: 22.4 µM
Cc1ccc(C=C2C(Cl)=C(Cl)C(Cl)=C2Cl)cc1 |  | active: 11.2 µM
CC(C)CNP(=S)(c1ccccc1)C(C)(C)C (configuration not stated) | inactive: 42.1% | 
Cn1cccc1/C=C1\C(=O)NC(=O)N(Cc2ccccc2Cl)C1=O |  | active: 28.2 µM
CCC(C)/C=C(C)/C=C/C1=CC2=C(Cl)C(=O)C(C)(OC(C)=O)C(=O)C2=CO1 (configuration not stated) | inactive: -15.9% | 
CN1CCN(c2ccc([N+](=O)[O-])c3no[n+]([O-])c23)CC1 |  | active: 89.1 µM
CC(C)c1ccc(N=Nc2c(O)[nH]c(=O)[nH]c2=O)cc1 | inactive: 31.3% | 
Cc1ccc(OCC(=O)N2CCN(Cc3ccc([N+](=O)[O-])cc3)CC2)cc1 | inactive: 43.6% | 
CC(N)[C@H](O)c1ccc(O)c(O)c1 (some centres not stated) |  | active: 3.16 µM
Cc1ccc2c(c1)C(c1ccccc1)=NCC(=O)N2C | inactive: 23.3% | 
O=[N+]([O-])c1cc(O)c(O)c([N+](=O)[O-])c1 | inactive: -29.8% | 
O=S(=O)(c1ccccc1)N1CCCCC1c1cccnc1 (configuration not stated) | inactive: 11.9% | 
CN(C)c1ccc(/C=C/c2cc[n+](C)c3ccccc23)cc1 | inactive: -24.4% | 
O=C1NC(=O)N(CCc2ccc(F)cc2)C(=O)/C1=C\C=C\c1ccccc1 | inactive: -11.5% | 
